Over roughly 110,000 compounds, “z-score” has its median near -0.1; the highest 2% begin near 2. The list shows a part of the results. Active and inactive are the calls of the source.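 How the source made its calls: active means z-score in the third read window above 3 or below -3; inactive means the rest.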

This assay addresses Metabotropic glutamate receptor 8 (Rattus norvegicus) (UniProt P70579). In words: mGluR8 Gi/Go-coupled signaling modulation – cell-based, rat, thallium flux, HTS, primary screen (AID 488969). The settings on record: HEK293 rat mGluR8, GIRK (G protein-gated inwardly rectifying potassium channel) thallium flux, FluoZin2; at 10 µM; stronger effect = higher value; submaximal glutamate (EC20) added with thallium.
Sequence of UniProt P70579 (P70579 whole entry, looked up): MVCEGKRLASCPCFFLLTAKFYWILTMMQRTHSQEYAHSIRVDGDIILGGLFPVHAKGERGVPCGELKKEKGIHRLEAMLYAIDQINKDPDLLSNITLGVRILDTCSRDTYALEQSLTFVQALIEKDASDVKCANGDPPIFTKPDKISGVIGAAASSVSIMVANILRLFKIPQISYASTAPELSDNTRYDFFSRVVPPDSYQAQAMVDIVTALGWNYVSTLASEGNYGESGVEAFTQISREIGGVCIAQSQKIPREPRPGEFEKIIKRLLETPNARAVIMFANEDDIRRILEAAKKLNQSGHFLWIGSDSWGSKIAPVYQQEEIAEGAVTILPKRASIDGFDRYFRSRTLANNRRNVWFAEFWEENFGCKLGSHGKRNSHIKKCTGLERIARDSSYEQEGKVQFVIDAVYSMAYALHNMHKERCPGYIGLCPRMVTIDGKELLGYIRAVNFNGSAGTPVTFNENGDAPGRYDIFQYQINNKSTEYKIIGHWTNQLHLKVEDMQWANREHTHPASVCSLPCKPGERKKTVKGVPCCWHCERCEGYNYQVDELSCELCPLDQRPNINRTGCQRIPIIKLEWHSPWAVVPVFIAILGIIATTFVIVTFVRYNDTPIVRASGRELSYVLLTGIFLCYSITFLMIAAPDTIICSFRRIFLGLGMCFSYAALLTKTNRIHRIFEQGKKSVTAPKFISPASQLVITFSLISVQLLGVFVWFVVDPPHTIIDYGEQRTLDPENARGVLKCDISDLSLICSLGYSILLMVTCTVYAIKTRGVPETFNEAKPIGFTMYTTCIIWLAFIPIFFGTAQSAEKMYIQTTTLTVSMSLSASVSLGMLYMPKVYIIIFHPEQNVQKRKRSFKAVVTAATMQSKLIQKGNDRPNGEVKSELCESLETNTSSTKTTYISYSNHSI
Molecule `O=C(c1cc(-c2cccs2)on1)N1CCN(c2ccccc2)CC1` gave a z-score of -0.51. In the case of `CCOC(=O)c1c2ccc(OCC(=O)N/N=C/c3ccc(C)cc3)cc2n2ccccc12` it was -0.78; in that of `CC(C)(C)OC(=O)N1CCC(c2cc(=O)n3[nH]cc(C(=O)NC4CCCC4)c3n2)CC1`, 0.106. `Cc1ccc(-c2n[nH]c3c2CCC3)cc1` displayed a z-score of -0.294. In the case of `Cn1c(NC(=O)c2cc(Cl)ccc2Cl)cc(=O)n(C)c1=O` it was 0.0537; in that of `O=C(C1CC1)N1CCc2cc(S(=O)(=O)NCCC3=CCCCC3)ccc21`, -0.325. In the case of `CCCOc1ccc(C(=O)N2CCN(c3ccc(N)cc3Cl)CC2)cc1` it was -0.235; in that of `COc1ccc(CNc2nc(NCc3ccc(OC)cc3)n(C(=O)c3ccccc3[N+](=O)[O-])n2)cc1`, -0.0563; in that of `C=CCN(CC=C)C(=O)Nc1cc(Cl)ccc1OC`, -0.919.

`Cc1ccc(C(=O)NCCN2CCOCC2)cc1`: the z-score is -0.0596.

Take `COC(=O)c1ccc(COC(=O)c2c(C)nn(Cc3ccccc3Cl)c2Cl)o1`: the z-score was -0.729. Molecule `Cc1ccc(-n2nnnc2SCC(=O)N2CCc3ccccc3C2)cc1` gave a z-score of -0.883. Next, `CCOc1ccc(N/C=C/C(=O)c2ccccc2)c([N+](=O)[O-])c1`: -0.186; `Cc1ccc(S(=O)(=O)NC(=O)Nc2ccccc2F)cc1`: 0.149.

Molecule `CCCSc1nc(N)nc(-c2cccs2)c1C#N` showed a z-score of -0.712. Turning to `CCOC(=O)c1sc(N)c(C#N)c1COC(=O)CNC(=O)c1cc(OC)c(OC)c(OC)c1`, the z-score is -1.23. In the case of `CCn1c(C(=O)OC)cc2c1ccn2-c1ccc(F)cc1` it was 0.12. `Cc1cccc(N(CC(=O)NC2CCCC2)C(=O)c2c(C)noc2C)c1` registered a z-score of 0.0556. In the case of `O=C(O)C1CCCCC1C(=O)NCc1cn2ccccc2n1` (centres undefined) it was -0.352; in that of `Cc1ccc(NC(=O)Cn2cccc2C2=NC(c3ccccc3)CO2)cc1C` (centres undefined), -0.458. `CCOC(=O)C1C(=O)NC(SCC(=O)Nc2nccs2)=C(C#N)C1c1ccccc1OCC` (centres undefined) gave a z-score of -1.14. Next, `COCCn1c(SCc2nnc(-c3ccccc3)o2)nc2sc3c(c2c1=O)CCC3`: -1.02. In the case of `CCN(CC)S(=O)(=O)c1cc(C)c(C)cc1Br` it was 0.329. `CCn1c(=O)c(C(=O)Nc2ccsc2C(=O)OC)c(O)c2ccccc21` yielded a z-score of -0.168. In the case of `Cc1cc(C)c(C#N)c(N2CCCC(C(N)=O)C2)n1` (centres undefined) it was -0.414; in that of `CCCCn1c(=O)cc(N2CCOCC2)[nH]c1=O`, -0.607; in that of `CCOC(=O)N1CCc2c(sc3nc4n(c(=O)c23)N=C(C)CS4)C1`, -0.131.

In turn, `O=S(=O)(NCCn1ccc2ccccc21)c1ccccc1` gave a z-score of 0.0225. In the case of `CSCCC(NC(N)=O)C(=O)NCc1cccc(Cl)c1` (centres undefined) it was -0.285.

The molecule `Cn1c(CNc2ccc(Cl)cc2)nnc1SCc1ccccc1` displayed a z-score of -0.839.

As to `CSc1c(-c2ccccc2)nc2ccc(Cl)cc2c1C(=O)O`, the z-score was -0.78. `Cc1ccc(NC(=O)CSc2nnc(-c3n[nH]c4ccccc34)n2-c2ccccc2)c(C)c1` had a z-score of -0.139. In the case of `COc1ccc(-c2[nH]ncc2-c2ccc(Cl)cc2)c(O)c1` it was 1.54; in that of `CCOc1ccc(C2C(C(=O)c3ccc(C)o3)=C(O)C(=O)N2CCN2CCOCC2)cc1OC` (centres undefined), 0.446; in that of `CCOc1ccc(-c2cc(C(=O)Nc3ccc4c(c3)OCCO4)c3ccccc3n2)cc1`, -0.168. Next, `COc1ccccc1CCNS(=O)(=O)c1c(C)n(C)c(=O)n(C)c1=O`: -0.106.

`CCOC(=O)c1ccc(NCc2nc3ccccc3[nH]2)cc1`: the z-score amounted to 0.255. Next, `CN(CC(O)COc1ccc(S(=O)(=O)N2CCOCC2)cc1)C1CCCCC1` (centres undefined): 0.287; `Cc1ccc(-n2nnc3c(=O)n(CC(=O)N4CCOCC4)cnc32)cc1`: 0.142. `CCCS(=O)(=O)c1c(S(=O)(=O)CCC)c2c(C)cccn2c1C(N)=O` yielded a z-score of -0.316. The molecule `COc1ccccc1N1CCN(C(=O)CSc2ncnc3scc(-c4ccccc4)c23)CC1` registered a z-score of -0.253. The molecule `O=C(Nc1ccc(Cl)cc1)c1ccc(-n2cccn2)c([N+](=O)[O-])c1` yielded a z-score of -0.308. Next, `Brc1ccc(-c2ccc(/C=N/Nc3nncc(-c4ccccc4)n3)o2)cc1`: -0.232; `O=C(OCCN1CCOCC1)c1ccc(OCCN2CCOCC2)cc1`: -0.22; `CCCC1=NN2C(=N)/C(=C\c3ccc(SCc4ccco4)o3)C(=O)N=C2S1`: 1.03.

The molecule `Cc1cc(C)c2c(c1)/C(=C/C(=O)c1ccc(Br)s1)C(=O)N2` had a z-score of -0.0431.

`COc1ccc(S(=O)(=O)N(CC(=O)N2CCOCC2)Cc2ccccc2)cc1` came in with a z-score of -0.204. In the case of `COc1ccc(OCC(=O)Nc2cccc(OC)c2)cc1` it was -0.532; in that of `CC1CCCCC1NC(=O)COC(=O)c1ccc(N(C)C)cc1` (centres undefined), -0.0376. In the case of `O=C(Nc1ccc2nc(-c3cccs3)c(-c3cccs3)nc2c1)NC1CC1` it was 0.266. In the case of `CCOc1[nH]n(-c2ccc(Cl)cc2)c(=O)c1C=Nc1ccc(Cl)cc1` it was active: 3.26; in that of `COC(CNC(=O)c1ccc2c(c1)nc(C)n2-c1ccc(F)c(F)c1)OC`, 0.161. For `CC(=O)Nc1nc(C2COc3ccccc3O2)cs1` (centres undefined), the z-score was -0.0872. Next, `N#Cc1cc([N+](=O)[O-])cnc1NCC(O)CO` (centres undefined): 0.388; `COc1cc(CNCc2cccs2)ccc1OCC(=O)NC(C)(C)C`: -0.0291; `Cc1ccc(CC2CC(=O)N(c3cc(C)on3)C2=O)cc1` (centres undefined): -0.0692. Turning to `O=C(CN1C(=O)/C(=C/c2cccc(Br)c2)SC1=S)N1CCCC1`, the z-score is -0.0262. With `CC(C)(C)OC(=O)N1CCOCCOCCNCCOCCOCC1`, the z-score stood at 0.511. Consider `COC(=O)c1c(C)[nH]c(C(=O)OCC(=O)NCC(C)C)c1C`, for which the z-score was -0.00108. Consider `COC(=O)C(NC(=O)c1ccccc1C)(Nc1ncc(S(=O)(=O)c2ccc([N+](=O)[O-])cc2)s1)C(F)(F)F` (centres undefined), for which the z-score is -0.339. Next, `COc1ccc(C2CC(c3ccccc3)=NN2c2ccc(/C=N/NC(=O)c3ccncc3)cc2)cc1` (centres undefined): -0.0709; `O=C(CSc1nnc(-c2ccccc2O)n1Cc1ccccc1)NNC(=O)c1ccccc1O`: -0.644. In the case of `CCCc1ccc(OC(=O)c2cccs2)cc1` it was 0.371; in that of `CC(C)Nc1nc(NC(C)C)nc(N(C#N)CCOc2ccc(Cl)cc2Cl)n1`, -0.569; in that of `Cc1cc2c(cc1C)-c1nnnn1C(C)(C)C2`, -0.105. Molecule `O=C(Cn1c(=O)sc2ccccc21)N1CCOCC1` returned a z-score of 0.00724.

Consider `CCOC(=O)/C(C#N)=C/c1cn(CCC(=O)O)nc1-c1ccc(Cl)cc1`, for which the z-score was -0.502. In the case of `O=C(C(=O)N1CCc2ccccc2C1)N1CCc2ccccc2C1` it was 0.375. In the case of `Cc1ccccc1Nc1nc(N)nc(CN(C)Cc2ccccc2Cl)n1` it was 0.157; in that of `COc1ccc(SCc2noc(C(=O)NCC3CCCO3)c2C(=O)O)cc1` (centres undefined), -0.127. In turn, `CCCCn1nc2cc(C(=O)NC3CCc4ccccc43)ccc2c1OCC` (centres undefined) returned a z-score of -0.345. Next, `CC(NC(=O)NCCCn1ccnc1)(C(F)(F)F)C(F)(F)F`: -0.143; `CCCCSc1nnc(C)c(=O)[nH]1`: 0.165. In the case of `c1ccc(-n2c(Sc3cnccn3)nnc2-c2cccs2)cc1` it was 0.0971; in that of `COc1ccccc1/C=C/CN1CCN(c2ccccc2)CC1`, 0.0222. Take `COc1ccc(-c2cc(C3CC3)nc(SCC(=O)c3cccs3)c2C#N)cc1`: the z-score is 0.0502.

`Cc1c(NC(=O)c2cnn3c2NC(c2ccccc2)CC3C(F)(F)F)c(=O)n(-c2ccccc2)n1C` (centres undefined) registered a z-score of -0.13. In the case of `O=C(CN1C(=O)CSC1=O)N1CCCCC1` it was -0.395. In the case of `CCOCCCNC(=O)N[C@@H](Cc1ccccc1)C(=O)OC` it was -0.397; in that of `COc1cc(/C=N/N=C(/N)c2nonc2N)cc(Br)c1OCc1ccccc1C`, 0.466; in that of `COc1cccc(C2C(C(=O)c3ccco3)=C(O)C(=O)N2CCN(C)C)c1OC` (centres undefined), 0.026. Next, `COc1ccc(-c2c[n+]3c(n2-c2ccccc2)CCCCC3)cc1`: 0.466.

Molecule `O=C(COc1ccc(Cl)cc1)NCCSCc1cccc(Cl)c1` showed a z-score of -0.0859.

Molecule `COc1ccc(-c2csc(NC(=O)COC(=O)c3ccco3)n2)cc1` had a z-score of -0.243. Next, `CCCCNc1nnc(SCC(=O)c2c[nH]c3ccccc23)s1`: -0.12; `CC(=O)NC1=NN(C(C)=O)C(C)(c2ccc(Cl)s2)S1` (centres undefined): 0.182.

`CC1CC(N(C(=O)c2ccc(Cl)cc2)c2ccccc2)c2ccccc2N1C(=O)c1ccco1` (centres undefined) displayed a z-score of -0.00825. Turning to `COc1ccc(OC)c(CCNC(=O)CS(=O)(=O)Cc2nc(-c3ccc(C)cc3)oc2C)c1`, the z-score stood at 0.142. The molecule `CCN(CC)S(=O)(=O)c1cc(C(=O)Nc2ccccn2)ccc1C` yielded a z-score of -0.195. Take `COc1ccccc1-n1cnnc1SCC(=O)c1c[nH]c2ccccc12`: the z-score is -0.14.

In turn, `O=C(Nc1ccc(N2CCCC2)cc1)c1ccc2ccccc2c1` yielded a z-score of -0.47. Regarding `Cc1cccc2cc(COC(=O)c3cccnc3)c(=O)[nH]c12`, the z-score was -0.159.

As for `O=C(Nc1ccc(C(=O)OC[C@@H]2CCCN3CCCC[C@H]23)cc1)c1cccc(Br)c1`, the z-score came to 0.175. In the case of `O=C(CNS(=O)(=O)c1cccc(C(F)(F)F)c1)Nc1ccccc1F`, the z-score is -0.47. Next, `CNC(=O)NC(=O)C(OC(=O)c1cccc(S(=O)(=O)N2CCCCC2)c1)c1ccccc1` (centres undefined): 0.0137; `CCOc1ccc(-n2c(O)c(/C=N/NC(=O)C3COc4ccccc4O3)c3ccccc3c2=O)cc1` (centres undefined): -1.36; `CN(C)S(=O)(=O)N1CCN(S(=O)(=O)c2ccc3ccccc3c2)CC1`: 0.0868. Next, `CCOc1cccc(Oc2ncccc2C(=O)/C(C#N)=C/N(C)C)c1`: 0.546; `O=C(Nc1ccc2c(c1)OCO2)c1ccc(Br)c(S(=O)(=O)N2CCCC2)c1`: -0.548; `Cc1ccc(NC(=O)CN2C(=O)NC3(CCc4ccccc43)C2=O)cc1Cl` (centres undefined): -0.121. In the case of `COc1ccc(OCCSc2nc(N)cc(N)n2)cc1` it was -0.0713; in that of `O=S(=O)(c1ccc2ccccc2c1)N(CC(O)CN1CCOCC1)c1ccccc1` (centres undefined), -0.559. For the molecule `O=C1c2ccccc2C(=O)N1Cc1cc(-c2ccc(Cl)cc2)no1`, the z-score was 0.23. Next, `CC(C)Nc1nc(NC(C)C)nc(N(C)C#N)n1`: -0.0425. Next, `O=C(NCCCN1CCN(CCCNC(=O)c2ccc(F)cc2)CC1)c1ccc(F)cc1`: -0.246; `CCOC(=O)N1CCC(N2CCN(S(=O)(=O)c3ccc4ccccc4c3)CC2)CC1`: -0.303. `O=C(O)C1Cc2ccccc2CN1C(=O)c1ccccc1` (centres undefined) displayed a z-score of 0.924. Take `Cc1onc(-c2ccccc2Cl)c1C(=O)Nc1sc2c(c1C(N)=O)CCC(C)C2` (centres undefined): the z-score was -0.297.

Turning to `c1ccc(CCc2nn3c(-c4ccncc4)nnc3s2)cc1`, the z-score is -0.448.
